Measured values from PubChem BioAssay AID504333 (National Center for Advancing Translational Sciences (NCATS), 2011).
Several values for one entry are separate records, joined by “and”; a condition that tells them apart may be missing. Equal entries are not always repeated. In all, about 360,000 compounds went through this assay and about 16,000 (4.4%) were called active. The inconclusive results got no clear call from the source; some entries with a clear call stand among them for comparison. The call rests on the fitted dose curve; in most records, active means well fitted inhibition curve with a large enough effect; inconclusive means small, poorly fitted or top-dose-only effect; inactive means no such curve, though single readings can be large or run the other way. Potencies of inconclusive entries are doubtful fits and often do not repeat.

Each molecule was assayed against Bromodomain adjacent to zinc finger domain protein 2B (Homo sapiens) (UniProt Q9UIF8) (assay: qHTS Assay for Inhibitors of BAZ2B). Settings: AlphaScreen BAZ2B-H3K14Ac peptide displacement; activity change, negative = inhibition: at 114 µM (top of the series).
In short: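 Inhibition is scored as reduced AlphaScreen emission. The BAZ2B/b-H3(5-23)K14Ac complex (50 nM each) in PBS pH 7.4, 0.01% Tween-20 meets compound (up to 110 uM) for 30 min at RT before bead addition.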
Further: nearly all actives have a fitted effect of over 60% in size.
On the % scale 0 is the no-effect control and ±100 the full control effect; potency means the concentration at half of the fitted maximal effect; tags describe the fitted curve by direction and shape.

Sequence of UniProt Q9UIF8 (Q9UIF8 whole entry, looked up, the tested form may be a part): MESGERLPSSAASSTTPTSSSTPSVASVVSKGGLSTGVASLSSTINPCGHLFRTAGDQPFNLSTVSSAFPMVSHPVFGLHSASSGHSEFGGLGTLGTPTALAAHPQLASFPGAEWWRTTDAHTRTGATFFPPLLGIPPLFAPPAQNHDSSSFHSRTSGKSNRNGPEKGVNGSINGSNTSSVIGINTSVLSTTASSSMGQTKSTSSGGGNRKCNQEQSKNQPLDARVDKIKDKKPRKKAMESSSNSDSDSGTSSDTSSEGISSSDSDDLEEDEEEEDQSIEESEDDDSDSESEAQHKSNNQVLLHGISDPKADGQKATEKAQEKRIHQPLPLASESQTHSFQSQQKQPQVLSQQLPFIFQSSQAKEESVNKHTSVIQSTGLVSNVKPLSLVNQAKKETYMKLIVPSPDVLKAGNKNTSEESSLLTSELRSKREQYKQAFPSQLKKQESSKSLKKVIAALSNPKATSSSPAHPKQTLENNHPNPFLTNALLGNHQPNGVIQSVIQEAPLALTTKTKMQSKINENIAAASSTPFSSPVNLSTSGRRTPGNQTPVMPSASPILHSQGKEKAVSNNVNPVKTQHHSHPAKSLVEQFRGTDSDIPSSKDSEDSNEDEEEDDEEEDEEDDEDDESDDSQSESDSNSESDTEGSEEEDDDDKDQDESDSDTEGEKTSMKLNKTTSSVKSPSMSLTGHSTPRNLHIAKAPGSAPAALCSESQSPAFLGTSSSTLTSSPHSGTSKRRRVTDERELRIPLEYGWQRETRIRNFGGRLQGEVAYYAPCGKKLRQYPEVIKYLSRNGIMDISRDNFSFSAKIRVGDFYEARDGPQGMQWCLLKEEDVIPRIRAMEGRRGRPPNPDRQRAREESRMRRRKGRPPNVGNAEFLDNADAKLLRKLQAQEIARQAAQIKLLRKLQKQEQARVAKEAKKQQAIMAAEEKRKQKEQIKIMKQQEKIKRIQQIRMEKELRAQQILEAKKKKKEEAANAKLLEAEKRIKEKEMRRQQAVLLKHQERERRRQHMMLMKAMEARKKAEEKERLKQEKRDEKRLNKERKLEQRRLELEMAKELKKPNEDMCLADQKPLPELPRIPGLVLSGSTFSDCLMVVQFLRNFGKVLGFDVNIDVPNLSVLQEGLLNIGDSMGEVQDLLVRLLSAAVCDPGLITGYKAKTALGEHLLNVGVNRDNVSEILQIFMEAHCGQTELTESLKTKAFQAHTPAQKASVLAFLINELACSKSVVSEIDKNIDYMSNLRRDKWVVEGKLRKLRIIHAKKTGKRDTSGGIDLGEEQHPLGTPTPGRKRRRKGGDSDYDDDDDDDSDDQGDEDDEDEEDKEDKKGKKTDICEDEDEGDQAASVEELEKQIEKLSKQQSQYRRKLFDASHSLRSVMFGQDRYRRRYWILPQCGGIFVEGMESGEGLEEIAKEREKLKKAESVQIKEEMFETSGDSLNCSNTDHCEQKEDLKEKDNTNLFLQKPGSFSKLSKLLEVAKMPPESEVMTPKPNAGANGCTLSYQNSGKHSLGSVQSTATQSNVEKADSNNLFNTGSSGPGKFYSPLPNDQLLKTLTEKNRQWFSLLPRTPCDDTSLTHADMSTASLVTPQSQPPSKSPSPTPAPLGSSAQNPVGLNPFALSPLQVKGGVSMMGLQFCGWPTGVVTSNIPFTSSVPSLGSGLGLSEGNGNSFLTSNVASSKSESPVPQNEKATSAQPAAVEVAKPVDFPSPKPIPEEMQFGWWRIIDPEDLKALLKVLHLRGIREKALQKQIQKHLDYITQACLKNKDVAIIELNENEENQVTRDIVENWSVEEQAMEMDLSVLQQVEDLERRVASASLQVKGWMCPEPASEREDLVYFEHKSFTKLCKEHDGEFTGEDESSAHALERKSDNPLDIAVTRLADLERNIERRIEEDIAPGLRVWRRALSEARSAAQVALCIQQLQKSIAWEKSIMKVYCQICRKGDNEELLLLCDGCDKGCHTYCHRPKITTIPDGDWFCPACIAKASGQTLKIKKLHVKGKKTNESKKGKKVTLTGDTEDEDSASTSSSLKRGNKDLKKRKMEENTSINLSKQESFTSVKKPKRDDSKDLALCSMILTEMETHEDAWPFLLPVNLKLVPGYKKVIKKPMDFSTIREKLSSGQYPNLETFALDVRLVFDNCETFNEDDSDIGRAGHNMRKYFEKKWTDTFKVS

Row | Compound | Potency | activity change, negative = inhibition
1 | CC(=O)N1CCN(c2ccc(NCc3ccccc3)cc2)CC1 | inconclusive: 39.8 µM [inhibitor, partial curve] | –
2 | COc1ccc(Nc2ccc(C(F)(F)F)cc2[N+](=O)[O-])cn1 | active: 39.8 µM | –
3 | Nc1cc(-c2ccccc2)ccc1O | inconclusive: 56.2 µM [inhibitor, partial curve] and inconclusive: 89.1 µM [inhibitor, single point] | –
4 | N[C@@H](Cc1ccccc1)C(=O)N1CCC(C(=O)N[C@@H](CCC(=O)O)C(=O)O)CC1 | – | inactive: 0.936%
5 | Oc1cccc(C=NCc2ccccc2)c1O | inconclusive: 39.8 µM [inhibitor, partial curve] | –
6 | COc1ccccc1CNC(=O)CCCCn1c(=O)c2ccccc2n(CC(=O)Nc2cc(Cl)ccc2C)c1=O | – | inactive: 1.31%
7 | CC(Nc1c([N+](=O)[O-])c(=O)oc2ccccc12)c1ccccc1 (stereo not drawn) | inconclusive: 79.4 µM [inhibitor, single point] | –
8 | Cc1ccc(SCCNC(=O)c2ccc([N+](=O)[O-])c(C)c2)cc1 | inconclusive: 89.1 µM [inhibitor, single point] | –
9 | Nc1c(N(Cc2ccco2)C(=O)COc2ccccc2F)c(=O)[nH]c(=O)n1Cc1ccccc1 | – | inactive: 2.01%
10 | Cn1c(COc2ccc(Br)cc2)nnc1SC1CCc2ccccc2C1=O (stereo not drawn) | inconclusive: 89.1 µM [inhibitor, single point] | –
11 | Cc1cccc(-n2ccnc2SCC(=O)Nc2cccc(S(=O)(=O)NC3=NCCC3)c2)c1C | – | inactive: -11.7%
12 | COc1ccc(CCNc2nc(C)cc(C)c2C#N)cc1OC | inconclusive: 79.4 µM [inhibitor, single point] | –
13 | O=C(NCCNC1CCCCC1)c1ccco1 | inconclusive: 79.4 µM [inhibitor, partial curve] | –
14 | Cc1c(CN(C)C)c2c(n1Cc1ccccc1)C(=O)c1ccccc1-2 | active: 50.1 µM | –
15 | CC(OC(=O)C1CC(=O)N(Cc2ccco2)C1)C(=O)Nc1ccccc1[N+](=O)[O-] (stereo not drawn) | – | inactive: 2.8%
16 | Cc1ccc(C(=O)NCC(=O)OCC(=O)/C=C2\N(C)c3ccccc3C2(C)C)cc1C | – | inactive: -0.832%
17 | CCC(C)N(C(=O)COC(=O)C1C(C(=O)OC)=C(C)NC(C)=C1C(=O)OC)C1CCS(=O)(=O)C1 (stereo not drawn) | inconclusive: 89.1 µM [inhibitor, single point] | –
18 | Cc1c(C(=O)N2CCN(Cc3ccccc3)CC2)oc2c1C(=O)CC(C)(C)C2 | active: 79.4 µM | –
19 | CCN(CC)CCNC(=O)c1ccc2c(=O)n(C3CCCC3)c(=S)[nH]c2c1 | inconclusive: 56.2 µM [inhibitor, partial curve] | –
20 | C#CCOCCOCCOCCNc1nc(N2CCN(C(=O)[C@H]([C@@H](C)CC)n3cc([C@@H](N)Cc4ccc(O)cc4)nn3)CC2)nc(N2CCN(C(=O)[C@H](Cc3cc4ccccc4[nH]3)n3cc([C@@H](N)C(C)CC)nn3)CC2)n1 (stereo partly drawn) | inconclusive: 50.1 µM [inhibitor, partial curve] | –
21 | CC(C)OC(=O)c1cccc(C(=O)OCc2ccco2)n1 | inconclusive: 89.1 µM [inhibitor, single point] | –
22 | O=C(NCc1ccncc1)C1CCCCC1 | – | inactive: -2.4%
23 | O=C(CCN1CCCCCC1)Nc1ccc2c(c1)OCCO2 | active: 56.2 µM | –

Row | Compound | Potency | activity change, negative = inhibition
24 | COC(=O)c1ccc([C@@H](O)[C@H](C)C(=O)CC(=O)OC(C)(C)C)cc1 | inconclusive: 89.1 µM [inhibitor, single point] | –
25 | COCCNCC(=O)N1c2ccccc2Sc2ccccc21 | inconclusive: 89.1 µM [inhibitor, single point] | –
26 | Oc1ccc(/C=N/Nc2nccnc2Cl)c(O)c1 | active: 14.1 µM | –
27 | CCOC(=O)c1[nH]c(C)c(CCC(=O)Nc2ccc(N(CC)CC)cc2C)c1C | – | inactive: -18%
28 | COCC(=O)N1CCCC(C(=O)c2ccc(-c3ccccc3)cc2)C1 (stereo not drawn) | inconclusive: 89.1 µM [inhibitor, single point] | –
29 | COCC1CCN(Cc2cn(-c3ccccc3F)nc2-c2cc(C)sc2C)CC1 | inconclusive: 79.4 µM [inhibitor, single point] | –
30 | N#Cc1nc(COc2ccc(Br)cc2)oc1NCCN1CCOCC1 | inconclusive: 79.4 µM [inhibitor, single point] | –
31 | O=[N+]([O-])c1ccc2ncnc(N3CCN(Cc4ccc5c(c4)OCO5)CC3)c2c1 | active: 39.8 µM | –
32 | COc1ccc(NCc2cc3ccccc3[nH]c2=O)cc1 | inconclusive: 50.1 µM [inhibitor, partial curve] | –
33 | Cc1csc(NC(=O)Cc2coc3cc(C)c(C(C)C)cc23)n1 | inconclusive: 70.8 µM [inhibitor, single point] | –
34 | CCOC(=O)c1ccc(S(=O)(=O)n2c(=O)oc3ccccc32)cc1 | – | inactive: 11.8%
35 | CCN1CCN(c2nc3c(C)cccn3c(=O)c2/C=C(\C#N)S(=O)(=O)c2ccc(Cl)cc2)CC1 | inconclusive: 31.6 µM [inhibitor, full curve, poor fit] | –
36 | Cc1ccc(S(=O)(=O)N/N=C/c2cc([N+](=O)[O-])ccc2O)cc1[N+](=O)[O-] | inconclusive: 39.8 µM [inhibitor, partial curve] | –
37 | Cc1cc(O)cc2c1C(=O)/C(=C/c1ccco1)O2 | inconclusive: 50.1 µM [inhibitor, partial curve] | –
38 | CCN1CCN(c2cc(C)c3cc(NC(=S)NCCN(C)C)ccc3n2)CC1 | – | inactive: -0.269%
39 | O=C(Nc1ccc(N2CCOCC2)c(C(=O)O)c1)c1ccco1 | – | inactive: -0.907%
40 | CC(=O)Oc1c(Br)cc(N(C(C)=O)S(=O)(=O)c2ccccc2)c2ccccc12 | inconclusive: 50.1 µM [inhibitor, partial curve] | –
41 | COc1ccc(OC)c(NC(=O)c2ccc3c(c2)c(C)c(C)n3Cc2ccc(F)cc2)c1 | active: 25.1 µM | –
42 | COc1ccc(CNC(=O)c2ccc(NS(=O)(=O)c3ccc4[nH]c(=O)[nH]c4c3)cc2)cc1OC | inconclusive: 79.4 µM [inhibitor, single point] | –
43 | Cn1nnnc1N=N/C(=N/Nc1ccccc1)c1ccccc1 | active: 1.26 µM | –
44 | Cc1ccc(Cl)cc1N1CCN(C(=O)Cn2cnc3nc4c(cc3c2=O)CCCC4)CC1 | inconclusive: 79.4 µM [inhibitor, single point] | –
45 | Cc1cc(NC(=O)C2CC2)ncc1NC(=O)c1ccccn1 | active: 79.4 µM | –
46 | O=C(/C=C/c1ccc(OCc2ccccc2)c(OCc2ccccc2)c1)c1cccnc1 | inconclusive: 70.8 µM [inhibitor, single point] | –

Row | Compound | Potency | activity change, negative = inhibition
47 | Cc1ccc(CSc2cc(C)[nH]c(=O)n2)cc1 | active: 50.1 µM | –
48 | S=C(NCCc1ccccc1)N/N=C/C1CCCCC1 | – | inactive: -26.3%
49 | CCOc1ccc(N(C(=O)c2ccc(C)cc2)S(=O)(=O)c2ccc3c(c2)n(C)c(=O)n3C)cc1 | inconclusive: 79.4 µM [inhibitor, partial curve] | –
50 | CC(C)(C)C1CCC(=NNS(=O)(=O)c2ccc(Br)cc2)CC1 (stereo not drawn) | – | inactive: 9.12%
51 | O=C(c1cccs1)n1nc(-c2cccnc2)nc1NCc1ccco1 | inconclusive: 56.2 µM [inhibitor, partial curve] | –
52 | Cc1ccc(NC(=O)C2CCN(S(=O)(=O)c3c(C)n[nH]c3C)CC2)nc1 | inconclusive: 70.8 µM [inhibitor, single point] | –
53 | C#CCOCCOCCOCCNc1nc(N2CCOCC2)nc(N2CCN(C(=O)[C@H](CCCCN)n3cc([C@@H](N)C(C)CC)nn3)CC2)n1 (stereo partly drawn) | – | inactive: -36.8%
54 | CCCCCCCCCC(=O)N1CCN(c2cc3c(cc2F)c(=O)c(C(=O)O)cn3CC)CC1 | inconclusive: 89.1 µM [inhibitor, single point] | –
55 | CCOc1ccc(Cl)cc1S(=O)(=O)n1nnc2ccccc21 | inconclusive: 89.1 µM [inhibitor, single point] | –
56 | C[C@H]([C@@H](N)C(=O)N[C@@H](C(=O)O)[C@@H]1O[C@H](n2ccc(=O)[nH]c2=O)[C@@H](O)[C@H]1O)[C@@H](O)c1ccc(O)cn1 | inconclusive: 89.1 µM [inhibitor, single point] | –
57 | CCCN1C(=O)/C(=C/C=C2\N(CC)c3ccccc3C2(C)C)SC1=S | active: 1.78 µM | –
58 | CC(NC(=O)c1cc([N+](=O)[O-])cc([N+](=O)[O-])c1)c1ccc(-n2ccnc2)cc1 (stereo not drawn) | inconclusive: 89.1 µM [inhibitor, single point] | –
59 | CCNC(=O)CC1C(=O)N(c2ccc(C)cc2)C(=O)N1Cc1ccc(C)cc1 (stereo not drawn) | – | inactive: -4.23%
60 | COc1ccc(O)c(-c2cc(-c3cccc(Br)c3)n[nH]2)c1 | inconclusive: 79.4 µM [inhibitor, single point] | –
61 | Cc1cc(Oc2ccc(=O)n(C)n2)nc(=S)[nH]1 | inconclusive: 89.1 µM [inhibitor, single point] | –
62 | COc1cc(/C=N/Nc2ccc(C(=O)O)cc2)ccc1O | active: 50.1 µM | –
63 | Cc1ccnc(NS(=O)(=O)c2ccc(NC(=O)c3ccc(Br)o3)cc2)n1 | – | inactive: -23.3%
64 | COc1ccc2nc(-n3c(C)ccc3C)sc2c1 | inconclusive: 79.4 µM [inhibitor, single point] | –
65 | CCc1cccc2c1NC(=O)C21N2CCCC2C(C(=O)c2ccc3ccccc3c2)C12C(=O)Nc1ccccc12 (stereo not drawn) | inconclusive: 39.8 µM [inhibitor, partial curve] | –
66 | Cc1ccc(S(=O)(=O)N2CCC(C(=O)Nc3ncccc3O)CC2)cc1 | inconclusive: 89.1 µM [inhibitor, single point] | –
67 | COc1ccccc1N(Cc1cc2cccc(C)c2[nH]c1=O)C(=O)c1cccc(Cl)c1 | inconclusive: 79.4 µM [inhibitor, partial curve] | –
68 | COc1ccc(-n2c(SCC#N)nc3c(sc(=S)n3-c3ccccc3)c2=O)c(OC)c1 | inconclusive: 70.8 µM [inhibitor, single point] | –
